# Source: PubChem BioAssay AID1347165 (National Center for Advancing Translational Sciences (NCATS), 2019)
# Among all 220,000 compounds or so, about 5,700 (2.6%) were called active. The shares of active, inactive and inconclusive entries below differ from those in the screen. Calls come from the whole dose curve; as a rule, active = well fitted inhibition curve with a large enough effect; inconclusive = small, poorly fitted or top-dose-only effect; inactive = no such curve, though single readings can be large or run the other way. Where the call is inconclusive, the potency comes from a doubtful curve fit.
# Biological target: Lysine-specific demethylase 5B (Homo sapiens) (UniProt Q9UGL1)
# UniProt Q9UGL1, sequence (Q9UGL1 whole entry, looked up): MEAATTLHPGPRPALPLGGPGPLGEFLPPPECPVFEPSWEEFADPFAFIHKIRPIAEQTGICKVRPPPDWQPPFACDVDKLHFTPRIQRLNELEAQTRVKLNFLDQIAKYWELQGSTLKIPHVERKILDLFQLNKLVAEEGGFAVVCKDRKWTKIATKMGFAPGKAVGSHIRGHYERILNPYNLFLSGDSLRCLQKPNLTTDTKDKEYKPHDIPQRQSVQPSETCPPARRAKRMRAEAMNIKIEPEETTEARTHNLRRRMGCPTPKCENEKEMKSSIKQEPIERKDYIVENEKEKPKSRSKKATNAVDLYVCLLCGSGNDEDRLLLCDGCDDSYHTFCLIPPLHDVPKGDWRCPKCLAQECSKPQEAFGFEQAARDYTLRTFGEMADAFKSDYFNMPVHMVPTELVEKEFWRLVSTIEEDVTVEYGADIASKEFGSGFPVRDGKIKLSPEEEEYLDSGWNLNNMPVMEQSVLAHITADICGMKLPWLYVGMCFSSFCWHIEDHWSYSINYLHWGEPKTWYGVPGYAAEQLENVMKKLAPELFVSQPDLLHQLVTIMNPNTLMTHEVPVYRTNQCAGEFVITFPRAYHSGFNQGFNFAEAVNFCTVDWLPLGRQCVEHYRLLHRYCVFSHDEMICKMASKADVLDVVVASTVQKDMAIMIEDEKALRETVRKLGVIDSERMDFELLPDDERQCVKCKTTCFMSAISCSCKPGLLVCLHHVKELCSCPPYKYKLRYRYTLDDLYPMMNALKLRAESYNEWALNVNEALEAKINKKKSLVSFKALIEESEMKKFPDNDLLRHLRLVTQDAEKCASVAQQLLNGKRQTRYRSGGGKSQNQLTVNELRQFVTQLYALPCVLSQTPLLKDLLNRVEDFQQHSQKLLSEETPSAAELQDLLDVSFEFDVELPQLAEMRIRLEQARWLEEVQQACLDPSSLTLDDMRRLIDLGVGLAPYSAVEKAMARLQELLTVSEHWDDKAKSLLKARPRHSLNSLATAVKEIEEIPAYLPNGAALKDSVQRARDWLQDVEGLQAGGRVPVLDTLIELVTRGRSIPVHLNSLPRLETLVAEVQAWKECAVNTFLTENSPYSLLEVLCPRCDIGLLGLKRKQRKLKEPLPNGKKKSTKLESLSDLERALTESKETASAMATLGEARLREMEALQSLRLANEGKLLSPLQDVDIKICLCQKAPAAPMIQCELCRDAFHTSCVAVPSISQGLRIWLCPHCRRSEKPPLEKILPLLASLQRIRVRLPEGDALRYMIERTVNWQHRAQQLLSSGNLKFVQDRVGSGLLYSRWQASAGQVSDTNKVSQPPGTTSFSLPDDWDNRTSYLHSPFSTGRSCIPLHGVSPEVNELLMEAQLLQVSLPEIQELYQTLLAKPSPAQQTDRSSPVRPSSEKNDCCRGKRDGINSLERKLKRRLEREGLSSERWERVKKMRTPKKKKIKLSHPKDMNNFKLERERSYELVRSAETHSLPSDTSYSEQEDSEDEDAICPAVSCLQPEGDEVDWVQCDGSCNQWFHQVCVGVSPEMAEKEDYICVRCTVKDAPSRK
# Assay: Primary screen for KDM5B Histone Demethylases FDH-coupled qHTS; note: nearly all actives have a fitted effect of over 70% in size
# Details: FDH-coupled NADH fluorescence (FDH is formaldehyde dehydrogenase); series mostly up to 57.7 µM
# Summary of the method: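 qHTS format, multiple compound concentrations. Buffer 50 mM HEPES pH 7.5/0.01% Tween-20; 200 nM KDM5BΔAP final; 10 min compound preincubation; substrate-mix levels 12.5 µM peptide, 25 µM α-KG, 0.25 mM NAD⁺; 30 min RT; ΔRFU.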
# Potency is the fitted concentration of half-maximal effect; tags give direction and shape of the fitted curve.
row,SMILES,Potency
1,Cc1ccc(S(=O)(=O)NCC(c2ccc(N(C)C)cc2)N2CCc3ccccc32)cc1 (stereo not drawn),"inconclusive: 25.1 µM [inhibitor, partial curve, poor fit]"
2,Cc1c(-c2ccccc2)[nH]c2ccccc12,"inconclusive: 25.1 µM [inhibitor, partial curve, poor fit]"
3,CC1CCN(C(=O)CSc2nc(-c3cccs3)nc3ccccc23)CC1,"inconclusive: 35.5 µM [inhibitor, single point]"
4,O=c1cc(-c2ccccc2)n2c(SCc3ccc(Br)cc3)nnc2[nH]1,"inconclusive: 17.8 µM [inhibitor, partial curve, poor fit]"
5,CCOC(=O)N1CCN(C(=O)COC(=O)Cc2ccc(Cl)cc2)CC1,"inconclusive: 35.5 µM [inhibitor, partial curve, poor fit]"
6,CC(=O)c1c(C)nn(CC(=O)N2CCn3nc(Cc4ccccc4)cc3C2)c1C,inactive
7,COc1ccc(OC)c(CN2CCN(C/C=C/c3ccccc3)CC2)c1,"inconclusive: 20 µM [inhibitor, partial curve, poor fit]"
8,CNC(=O)N1CCCCCCNC(=O)[C@@H]2CCCC[C@@H]21,inactive
9,COC(=O)Cc1c(C)c2ccc(OCc3ccc(Cl)cc3)cc2oc1=O,"inconclusive: 25.1 µM [inhibitor, partial curve, poor fit]"
10,O=C(c1cnn(Cc2ccccc2Cl)c1)N1CCCN(S(=O)(=O)c2ccc(F)cc2)CC1,inactive
11,Cc1ccc(C(=O)N(Cc2ccco2)C2CC2)s1,inactive
12,Cc1ccc(NC(=O)Cn2cc(C(=O)c3ccco3)c3ccccc32)cc1,"inconclusive: 31.6 µM [inhibitor, single point]"
13,Nc1nccnc1C(=O)NCc1ccccc1F,"inconclusive: 22.4 µM [inhibitor, partial curve, poor fit]"
14,O=S(=O)(c1ccc2nc(Nc3cccc(F)c3)ccc2c1)N1CCCC1,"inconclusive: 31.6 µM [inhibitor, partial curve, poor fit]"
15,CCC(=O)N1CCc2sc(C(=O)NC3CCCCCC3)cc2C1,"inconclusive: 31.6 µM [inhibitor, partial curve, poor fit]"
16,Cc1ccccc1Cn1c2ccccc2c2cnn(CC(=O)N3CCC(C)CC3)c(=O)c21,inactive
17,COc1cc(CN2CCC(C)(c3noc(C4CCOCC4)n3)CC2)ccc1OC(C)C,inactive
18,CC(=O)N1CCN(C(=O)c2cnc(N)nc2-c2ccccc2)CC(O)C1 (stereo not drawn),active: 25.1 µM
19,CCOc1ccccc1C1C(C(=O)Nc2ccccc2)=C(C)Nc2c(C(=O)Nc3ccc(F)cc3)cnn21 (stereo not drawn),"inconclusive: 35.5 µM [inhibitor, single point]"
20,Cc1cc(Nc2cccc(Cl)c2)nc2ccc(NC(=O)c3cccc(N(C)C)c3)cc12,"inconclusive: 28.2 µM [inhibitor, partial curve, poor fit]"
21,Cc1ccc(NC2c3ccccc3-c3ccccc32)cc1,"inconclusive: 12.6 µM [inhibitor, partial curve, poor fit]"
22,O=C(Nc1ccsc1)N[C@H]1C[C@H]2C(=O)NC[C@@H](CCC(=O)N3CCc4ccccc43)N2C1,inactive
23,CCCCN(C)C(=O)C1CCN(CC(C)c2ccccc2)CC1 (stereo not drawn),inactive

row,SMILES,Potency
1,Cn1nccc1C(=O)N1CC(c2ncc3c(-c4ccc(F)cc4)nccn23)C1,"inconclusive: 25.1 µM [inhibitor, partial curve]"
2,CCn1cc(CN2CCCCC2c2nc(CCOCC3CCOCC3)no2)cn1 (stereo not drawn),"inconclusive: 35.5 µM [inhibitor, partial curve, poor fit]"
3,CN1C(=O)C2(CCN(C(=O)CCc3ccccc3)C2)c2ccccc21 (stereo not drawn),inactive
4,CC(C)CNC(=O)c1ccc2c(c1)C1(CCCN(CC3CC3)C1)CN2C (stereo not drawn),active: 35.5 µM
5,O=S(=O)(N1CCCCC1)N1CCOC(Cc2ccccc2Cl)C1 (stereo not drawn),"inconclusive: 28.2 µM [inhibitor, single point]"
6,Cc1cccc(N2CCN(c3ccc(NC(=O)c4ccccc4)cc3C(=O)O)CC2C)c1 (stereo not drawn),"inconclusive: 39.8 µM [inhibitor, single point]"
7,CC(C)(C)c1ccc(C(=O)NC(Nc2ccc3ccccc3c2)C(Cl)(Cl)Cl)cc1 (stereo not drawn),"inconclusive: 14.1 µM [inhibitor, partial curve, poor fit]"
8,Cc1ccc(CN2C(=O)[C@@H]3C[C@@H](O)CN3C3(CN(Cc4ccccc4F)C3)C2=O)o1,"inconclusive: 35.5 µM [inhibitor, single point]"
9,CC(C(=O)NCc1cccs1)N1CCC(O)CC1 (stereo not drawn),inactive
10,NC(=O)CSS(=O)(=O)O,"inconclusive: 39.8 µM [inhibitor, single point]"
11,Cc1cccc(NC(=O)c2ccc3nc(CCc4ccccc4)oc3c2)c1C,"inconclusive: 35.5 µM [inhibitor, single point]"
12,O=C(NCC1COc2ccccc2O1)c1cccc(S(=O)(=O)N2CCN(c3ccccc3)CC2)c1 (stereo not drawn),"inconclusive: 28.2 µM [inhibitor, partial curve, poor fit]"
13,CC(=O)c1ccc(NC(=O)O[C@@H]2CO[C@H]3[C@@H]2OC[C@@H]3n2nnnc2SCc2ccco2)cc1,inactive
14,Cc1cccc(OC(=O)c2cc(-c3ccc4c(c3)OCCO4)on2)c1C,"inconclusive: 35.5 µM [inhibitor, partial curve, poor fit]"
15,Cc1cc(C)cc(C(=O)NCC(=O)N2CCN(C(c3ccccc3)c3ccccc3)CC2)c1,"inconclusive: 39.8 µM [inhibitor, partial curve, poor fit]"
16,COc1ccc2nc(CO[C@H]3CN(Cc4ncccc4C)C[C@H]3F)[nH]c2c1,"inconclusive: 28.2 µM [inhibitor, partial curve]"
17,COc1ccc(-c2ccnc3nc(CC(C)C)nn23)cc1OC,active: 28.2 µM
18,COCC1CN(C2CCC2)CC12CCN(C(=O)c1ccc(F)cc1F)CC2 (stereo not drawn),"inconclusive: 15.8 µM [inhibitor, partial curve, poor fit]"
19,COc1ccc(C(=O)N2CCC(N3C(=O)C(OC)C34CCOCC4)CC2)c(OC)c1 (stereo not drawn),inactive
20,COc1cc(OC)c(C(=O)Nc2nnc(C(F)(F)F)s2)cc1OC,inactive
21,Cc1oc2cc(OCC(=O)NC3(C)CCS(=O)(=O)C3)ccc2c(=O)c1Oc1ccccc1 (stereo not drawn),inactive
22,COC[C@@H]1CCCN1c1ncnc2c1CN(C1CCNC1)C(=O)CN2C (stereo partly drawn),"inconclusive: 44.7 µM [inhibitor, partial curve]"
23,Cc1nc2cc(NC(=O)c3cccc(F)c3)ccc2o1,inactive

row,SMILES,Potency
1,NCC(Cc1ccccc1F)c1ccccc1 (stereo not drawn),"inconclusive: 22.4 µM [inhibitor, partial curve, poor fit]"
2,O=C(Nc1nnc(C2CC2)s1)C1CC(=O)N(c2n[nH]c3cc(Br)ccc23)C1 (stereo not drawn),"inconclusive: 4.47 µM [inhibitor, partial curve, poor fit]"
3,COc1ccc2oc(=O)c(-c3nc(-c4ccccn4)no3)cc2c1,inactive
4,O=C(O)c1ccc2nccnc2c1,"inconclusive: 39.8 µM [inhibitor, single point]"
5,CN(C)c1ccc2ncc(Nc3ccccc3F)n2n1,"inconclusive: 31.6 µM [inhibitor, partial curve, poor fit]"
6,CC1=NS(=O)(=O)N(Cc2ccccc2)C=C1C(=O)OCc1noc(-c2cccc(F)c2)n1,inactive
7,CCCC(=O)NC(C)C(=O)N1CCN(c2ccccn2)CC1 (stereo not drawn),active: 25.1 µM
8,CCn1cc(S(=O)(=O)N2CCC3(CC2)CC(N(C)Cc2ccccc2)CCO3)cn1 (stereo not drawn),inactive
9,CCOC(=O)c1noc2nc(C)nc(Nc3cccc(C(F)(F)F)c3)c12,inactive
10,COC(=O)c1sccc1NC(=O)c1ccc(Cl)cc1,"inconclusive: 25.1 µM [inhibitor, single point]"
11,NC(=O)COc1ccc(C(=O)N[C@@H]2CN(C(=O)Nc3cccc(C(F)(F)F)c3)CCC[C@H]2O)cc1,"inconclusive: 25.1 µM [inhibitor, single point]"
12,COc1ccccc1NC(=O)Cn1c(C)ccc(NS(=O)(=O)c2ccccc2)c1=O,inactive
13,c1ccc(CCc2nc3nccc(-c4ccccn4)n3n2)cc1,"inconclusive: 10 µM [inhibitor, partial curve]"
14,O=C(NCCOc1ccccc1)c1nc2c(o1)CCN(CC1CCCCC1)CC2,"inconclusive: 31.6 µM [inhibitor, partial curve, poor fit]"
15,CC(C)(CN1CCC(Cc2cccc(C(=O)O)c2)C1)N1CCOCC1 (stereo not drawn),"inconclusive: 2.82 µM [inhibitor, full curve]"
16,CCOC(=O)CCc1c(C)nc2c(c(C)nn2-c2ccc(C)cc2)c1C,"inconclusive: 1.41 µM [inhibitor, full curve, poor fit]"
17,O=C(NC1CCCCCC1)c1nnn2cc(-c3ccccc3)[nH]c(=O)c12,"inconclusive: 31.6 µM [inhibitor, partial curve, poor fit]"
18,CN(Cc1ccccn1)c1ccc(-c2nc(Cc3ccc(F)cc3)no2)cn1,"inconclusive: 31.6 µM [inhibitor, partial curve, poor fit]"
19,COc1ccc(Cl)cc1S(=O)(=O)N1CCC(c2c[nH]c3c(C)cccc23)CC1,"inconclusive: 28.2 µM [inhibitor, partial curve, poor fit]"
20,COc1ccc(CC(=O)OCC(=O)c2ccc3c(c2)OCCCO3)cc1,inactive
21,Cc1ccc(-c2cc(C(=O)NCc3cccnc3)c3c(c2)ncn3C)cn1,"inconclusive: 35.5 µM [inhibitor, single point]"
22,O=C(Cn1nc(-c2ccc(Cl)cc2)ccc1=O)NCCc1ccccc1,"inconclusive: 31.6 µM [inhibitor, partial curve, poor fit]"
